# ChEMBL document CHEMBL5606460, “ASAP - DENV-2 NS2B-NS3 protease fluorescence single point” (2024)
# The campaign covered roughly 2,000 compounds. About 110 (5.5%) showed an effect of 50% or more. Some of the results follow.
# Molecular target: Genome polyprotein (dengue virus type 2) (UniProt P29990)
# [1] = Thailand/16681/1984, Concentration 25.0 uM, Number of replicates 1.0
smiles,measurement,setting,value
CCN1CCOC[C@H]1C(=O)Nc1cc(Cl)cc(C(=O)NC(C)(C)CO)c1,inhibition,"Thailand/16681/1984, Concentration 49.5 uM, Number of replicates 2.0, Standard deviation 0.6499972535452555 %",-1.27%
same,inhibition,"Thailand/16681/1984, Concentration 99.01 uM, Number of replicates 2.0, Standard deviation 0.004226991730854585 %",-2.97%
same,inhibition,"Thailand/16681/1984, Concentration 198.0 uM, Number of replicates 2.0, Standard deviation 1.831169890174156 %",-0.762%
CN1CCN(C(=O)C2CCN(C(=O)C3CCN(c4ccc(C=O)cc4)CC3)CC2)CC1,inhibition,[1],10.4%
O=C(N[C@@H](Cc1ncc[nH]1)c1ccccc1)c1ccc2c(c1)B(O)OC2,inhibition,"Thailand/16681/1984, Concentration 49.5 uM, Number of replicates 2.0, Standard deviation 1.0122637885717318 %",-5.27%
same,inhibition,"Thailand/16681/1984, Concentration 99.01 uM, Number of replicates 2.0, Standard deviation 7.4966370167471315 %",-1.36%
same,inhibition,"Thailand/16681/1984, Concentration 198.0 uM, Number of replicates 2.0, Standard deviation 3.0828684078497304 %",-3.8%
O=Cc1ccc(N2CCC(C(=O)N3CCN(c4cccc5sccc45)CC3)CC2)cc1,inhibition,[1],9.91%
CNC(=O)c1cc(Cl)cc(OC)c1NS(=O)(=O)c1ccc(Oc2ccccc2Cl)cc1,inhibition,"Thailand/16681/1984, Concentration 49.5 uM, Number of replicates 2.0, Standard deviation 0.8103097460864452 %",1.45%
same,inhibition,"Thailand/16681/1984, Concentration 99.01 uM, Number of replicates 2.0, Standard deviation 1.6946405270728757 %",1.53%
same,inhibition,"Thailand/16681/1984, Concentration 198.0 uM, Number of replicates 2.0, Standard deviation 1.1024722794831296 %",-0.559%
COc1cc(CC(=O)N2CCN(C(C)=O)CC2)nc(N2CCNCC2)n1,inhibition,"Thailand/16681/1984, Concentration 49.5 uM, Number of replicates 2.0, Standard deviation 1.979205385065759 %",-3.64%
same,inhibition,"Thailand/16681/1984, Concentration 99.01 uM, Number of replicates 2.0, Standard deviation 1.6826594845935323 %",-3.2%
same,inhibition,"Thailand/16681/1984, Concentration 198.0 uM, Number of replicates 2.0, Standard deviation 2.319277010344762 %",-4.32%
CN(Cc1ccc(Cl)c(Cl)c1)C(=O)C1CCN(c2ccc(C=O)cc2)CC1,inhibition,[1],9.81%
CNC(=O)c1cn(S(=O)(=O)c2ccc(Oc3ccccc3Cl)cc2)c2ccc(Cl)cc12,inhibition,"Thailand/16681/1984, Concentration 49.5 uM, Number of replicates 2.0, Standard deviation 1.1380993582408887 %",0.625%
same,inhibition,"Thailand/16681/1984, Concentration 99.01 uM, Number of replicates 2.0, Standard deviation 1.0406365412270837 %",4.48%
same,inhibition,"Thailand/16681/1984, Concentration 198.0 uM, Number of replicates 2.0, Standard deviation 0.5161930213749926 %",12.8%
Cc1ccc(Cl)c(CNC(=O)C2CCN(c3ccc(C=O)cc3)CC2)c1,inhibition,[1],11.9%
c1cncc(CN2CCC(c3c[nH]c4cccnc34)CC2)c1,inhibition,"Thailand/16681/1984, Concentration 49.5 uM, Number of replicates 2.0, Standard deviation 0.0717489720537479 %",-0.221%
same,inhibition,"Thailand/16681/1984, Concentration 99.01 uM, Number of replicates 2.0, Standard deviation 0.5591472085741809 %",0.281%
same,inhibition,"Thailand/16681/1984, Concentration 198.0 uM, Number of replicates 2.0, Standard deviation 0.5232727014738827 %",-0.08%
CCCCCC(=O)N[C@H](C(=O)Nc1cccc(C(N)=O)c1)c1ccc(OCc2ccccc2)cc1,inhibition,"Thailand/16681/1984, Concentration 49.5 uM, Number of replicates 2.0, Standard deviation 0.8710225342474791 %",1.48%
same,inhibition,"Thailand/16681/1984, Concentration 99.01 uM, Number of replicates 2.0, Standard deviation 1.9032952704635988 %",1.26%
same,inhibition,"Thailand/16681/1984, Concentration 198.0 uM, Number of replicates 2.0, Standard deviation 1.599366016580605 %",3.23%
CC(C)(CO)CN1CC[C@H](c2c[nH]c3ccccc23)C1,inhibition,"Thailand/16681/1984, Concentration 49.5 uM, Number of replicates 2.0, Standard deviation 0.011344920094768412 %",-5.3%
same,inhibition,"Thailand/16681/1984, Concentration 99.01 uM, Number of replicates 2.0, Standard deviation 0.1670795483912504 %",-4.13%
same,inhibition,"Thailand/16681/1984, Concentration 198.0 uM, Number of replicates 2.0, Standard deviation 0.08457102328498975 %",-2.75%
Cc1ccc2cccc(NC(=O)C3CCN(c4ccc(C=O)cc4)CC3)c2n1,inhibition,[1],50.9%
CNC(=O)c1cc(Cl)ccc1NS(=O)(=O)c1ccc(OC)cc1,inhibition,"Thailand/16681/1984, Concentration 49.5 uM, Number of replicates 2.0, Standard deviation 1.598704816821166 %",-9.51%
COc1ccccc1C1CCN(C(=O)C2CCN(c3ccc(C=O)cc3)CC2)CC1,inhibition,[1],12.3%
Cc1ccc([C@H](CCO)NC(=O)C2CCN(c3ccc(C=O)cc3)CC2)cc1,inhibition,[1],11.9%
O=Cc1ccc(N2CCC(C(=O)Nc3cc(Cl)cc([N+](=O)[O-])c3O)CC2)cc1,inhibition,[1],90.5%
CN1CCN(CCCNC(=O)C2CCN(c3ccc(C=O)cc3)CC2)CC1,inhibition,[1],6.58%
O=Cc1ccc(N2CCC(C(=O)N3CCN(c4nsc5ccccc45)CC3)CC2)cc1,inhibition,[1],9.15%
CS(=O)(=O)C1(CNC(=O)[C@]2(c3ccc(F)cc3)CCCNC2)CC1,inhibition,"Thailand/16681/1984, Concentration 49.5 uM, Number of replicates 2.0, Standard deviation 0.4494983310048074 %",-2.19%
same,inhibition,"Thailand/16681/1984, Concentration 99.01 uM, Number of replicates 2.0, Standard deviation 1.364622990359298 %",-1.57%
same,inhibition,"Thailand/16681/1984, Concentration 198.0 uM, Number of replicates 2.0, Standard deviation 0.44585663255922364 %",-0.527%
COc1ccc(NC(=O)C2CCN(c3ccc(C=O)cc3)CC2)cc1C(F)(F)F,inhibition,[1],1.29%
Nc1nccc(N2CCN(c3ncnc4sccc34)CC2)n1,inhibition,"Thailand/16681/1984, Concentration 49.5 uM, Number of replicates 2.0, Standard deviation 1.3096000267472347 %",-3.4%
same,inhibition,"Thailand/16681/1984, Concentration 99.01 uM, Number of replicates 2.0, Standard deviation 1.6640502179831234 %",-2.5%
same,inhibition,"Thailand/16681/1984, Concentration 198.0 uM, Number of replicates 2.0, Standard deviation 1.511077135494772 %",-2.22%
CNC(=O)c1ccccc1NS(=O)(=O)c1ccc(Oc2ccccc2Cl)cc1,inhibition,"Thailand/16681/1984, Concentration 49.5 uM, Number of replicates 2.0, Standard deviation 0.8338499147497574 %",0.494%
same,inhibition,"Thailand/16681/1984, Concentration 99.01 uM, Number of replicates 2.0, Standard deviation 3.066215993073902 %",-2.05%
same,inhibition,"Thailand/16681/1984, Concentration 198.0 uM, Number of replicates 2.0, Standard deviation 2.7475277663160753 %",-6.31%
O=Cc1ccc(N2CCC(C(=O)N3CCN(C(=O)C(F)(F)F)CC3)CC2)cc1,inhibition,[1],8.59%
